The text below walks through data of patent US20240425579A1 (Y TRAP, published 2024).

Experiment [1] deals with T1, biotinylated hu-PDL2 (human, UniProt Q9BQ51 20-220, limits assumed, biotinylated).
T1 construct: Soluble biotinylated protein detected with streptavidin-HRP
T1 sequence (looked up): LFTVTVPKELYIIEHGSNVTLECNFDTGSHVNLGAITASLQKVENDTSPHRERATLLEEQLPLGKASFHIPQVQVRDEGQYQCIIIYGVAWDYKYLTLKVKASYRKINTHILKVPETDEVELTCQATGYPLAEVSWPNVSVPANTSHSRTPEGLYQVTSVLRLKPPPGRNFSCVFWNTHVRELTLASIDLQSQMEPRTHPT
The experiment is described as follows: ELISA: construct coated at 1 µg/mL, varying biotinylated hu-PDL2, streptavidin-HRP. Background: An ELISA detects its analyte on a solid surface through an enzyme-linked reagent.

The target in experiment [2] is T1, biotinylated hu-PDL2. The experiment is described as follows: ELISA: varying concentrations of construct coated, fixed biotinylated hu-PDL2 (500 ng/mL).

B1: anti-IL-23-PD1ecd (anti-IL-23 antibody guselkumab with PD1 ECD A132I fused to the C terminus of the heavy chain via (GGGGS)3) (other)
heavy: EVQLVQSGAEVKKPGESLKISCKGSGYSFSNYWIGWVRQMPGKGLEWMGIIDPSNSYTRYSPSFQGQVTISADKSISTAYLQWSSLKASDTAMYYCARWYYKPFDVWGQGTLVTVSS[here human IgG1 constant region with changes without letters]GGGGSGGGGSGGGGSPGWF[here about 150 residues without letters]
light: QSVLTQPPSVSGAPGQRVTISCTGSSSNIGSGYDVHWYQQLPGTAPKLLIYGNSKRPSGVPDRFSGSKSGTSASLAITGLQSEDEADYYCASWTDGLSLVVFGGGTKLTVLGQPKAAPSVTLFPPSSEELQANKATLVCLISDFYPGAVTVAWKADSSPVKAGVETTTPSKQSNNKYAASSYLSLTPEQWKSHRSYSCQVTHEGSTVEKTVAPTECS
notes: Antibody-receptor ECD fusion; also called a-IL-23-PD1 (A123I); anti-IL-23-PD1 (A123I)
Turning to B1, the EC50 (as a rule, the concentration at which the effect is half-maximal) with biotinylated hu-PDL2 [1] was 54 nM; with biotinylated hu-PDL2 [2], 780 nM.
